Source: patent US20200353078A1

Key:
[1] = target: T1, Human IL-33 Flag®His (human); assay: HTRF competition: purified scFv titrated against human ST2-Fc for FLAG-His human IL-33
T1 sequence: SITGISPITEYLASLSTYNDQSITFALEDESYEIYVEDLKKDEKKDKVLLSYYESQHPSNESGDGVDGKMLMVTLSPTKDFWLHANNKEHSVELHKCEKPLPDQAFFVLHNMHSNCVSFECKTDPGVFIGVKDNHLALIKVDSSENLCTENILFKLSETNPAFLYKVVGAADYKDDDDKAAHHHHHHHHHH

[2] = target: T1, Human IL-33 Flag®His (human); assay: HTRF IL-33:ST2 binding assay, single point, unpurified scFv periplasmic extract at 50% v/v; blocked ligand human ST2-Fc; total binding wells 98-102, non-specific binding wells 0

IC50 (read off the curve) [1]: 40 nM
% Specific Binding [2]: 81%
B1: IL330004 scFv (scFv, part only; not given: linker, domain order and tags, V domains shown, not shown: another chain or arm of the molecule; small tags and cut ends)
VH: [about 100 residues not listed]ESYYDFWSGQYYFDYWGQGTMVTVSS
VL: SYELTQPPSVSVSPGQTASISCSGDKLGDKFASWYQQKPGQSPVLIIYQDRKRPSGIPERFSGSNSGNTATLTISGTQTTDEADYYCQAWDGSLYVFGTGTKLTVL
